Here are results for 40 compounds from PubChem BioAssay (NCATS).

What is called AC50 is the midpoint of the concentration-response curve, whichever way the signal moves.

This experiment in a line: qHTS drug screen for cell cycle checkpoint inhibitors in PARPi-resistant BRCA-mutant ovarian cancer cell lines. (AID 1963452). The note with it: PEO1/OlaR viability, CellTiter-Glo luminescence, 96 h. The method, boiled down:
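PEO1, PEO4 and PEO1/OlaR ovarian cancer cells, 600 per well, exposed 96 h at 37C to a dilution series. Viability read by CellTiter-Glo luminescence, normalized to DMSO and empty wells; activity summarized as Z-AUC.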
In general terms: Quantitative high-throughput screening tests each substance at several concentrations.

The mark [1] stands for this setting: measured here: PEO1 parental viability.

Some of the results follow. These are further read-outs of the screen, such as a control signal, another cell line or another target. No call is given for them. Potencies come from curve fits of mixed quality, noted in brackets.
Tags give direction and shape of the fitted curve.

On to `CCNCCc1ccc(CN(CC)c2cc(OC)ccc2[C@@H]2CCc3cc(O)ccc3C2)cc1`, for which the half-maximal activity concentration (AC50) was 2.75 µM [falling, full curve] under setting [1] and 4.9 µM [falling, full curve] (measured here: PEO4 viability).

As to `C#CC[C@H](c1nc2cc(Cl)ccc2c(=O)n1Nc1ccccc1)N(CCCN)C(=O)c1cccc(Cl)c1F`, the AC50 is 1.1 µM [falling, full curve] under setting [1] and 1.1 µM [falling, full curve] (measured here: PEO4 viability).

For the compound `C[C@]12CC[C@H](O)CC1=CCC1C2CC[C@]2(C)C(n3cnc4ccccc43)=CCC12` (stereo not given in full), the half-maximal activity concentration (AC50) under setting [1] is 15.5 µM [falling, single point] and the AC50 (measured here: PEO4 viability) was 13.8 µM [falling, partial curve].

For the compound `CS(=O)(=O)N1CCC(NC(=O)c2[nH]ncc2NC(=O)c2c(Cl)cccc2Cl)CC1`, the AC50 under setting [1] was 1.74 µM [falling, full curve] and the AC50 (measured here: PEO4 viability) was 2.19 µM [falling, full curve].

Take `CC(=O)N1CCN(CCOc2ccc(C3CCN(C4=Nn5c(nnc5C(F)(F)F)CC4)CC3)cc2)CC1`: the AC50 is 8.71 µM [falling, partial curve, poor fit] under setting [1] and 7.76 µM [falling, partial curve] (measured here: PEO4 viability).

In the case of `COC(=O)N[C@H](C(=O)N1CCC[C@H]1c1ncc(-c2ccc(-c3ccc(-c4cnc([C@@H]5CCCN5C(=O)[C@@H](NC(=O)OC)C(C)C)[nH]4)cc3)cc2)[nH]1)C(C)C`, the AC50 runs as follows: under setting [1], 21.9 µM [falling, single point]; (measured here: PEO4 viability) 15.5 µM [falling, single point].

Take `CC(=O)O/N=C1/C(c2c(O)[nH]c3cc(Br)ccc23)=Nc2ccccc21`: the AC50 is 15.5 µM [falling, partial curve] under setting [1] and 15.5 µM [falling, partial curve] (measured here: PEO4 viability).

On to `CCN1C(=O)N2Cc3cc(OC)cc(OC)c3[C@@H](C)C=C2C12CCN(Cc1cc(C)cc(C)c1)CC2`, for which the AC50 under setting [1] was 21.9 µM [falling, single point] and the AC50 (measured here: PEO4 viability) was 15.5 µM [falling, single point].

Turning to `COc1cccc2c1C(=O)c1c(O)c3c(c(O)c1C2=O)C[C@@](O)(/C(CO)=N/NC(=O)CCCCCN1C(=O)C=CC1=O)C[C@@H]3O[C@H]1C[C@H](N)[C@H](O)[C@H](C)O1`, the AC50 by setting is: under setting [1], 0.389 µM [falling, full curve]; (measured here: PEO4 viability) 0.776 µM [falling, full curve].

For `COc1cc2c(Oc3ccc4[nH]c(C)cc4c3F)ccnc2cc1OCC1(N)CC1`, the AC50 under setting [1] is 6.16 µM [falling, partial curve] and the concentration at half-maximal activity (AC50) (measured here: PEO4 viability) was 6.16 µM [falling, partial curve].

With `Cc1ccc(NC(=O)Nc2nnc(Sc3ncnc4cc(OCCCN5CCOCC5)ccc34)s2)cc1`, the AC50 is, setting by setting: under setting [1], 24.5 µM [falling, single point]; (measured here: PEO4 viability) 24.5 µM [falling, single point].

As for `COC1CC(C(=O)c2ccc3c(N)ncc(-c4ccc(-c5cnn(C)c5)cc4)c3n2)C1` (stereo not given), the half-maximal activity concentration (AC50) is, setting by setting: under setting [1], 21.9 µM [falling, single point]; (measured here: PEO4 viability) 8.71 µM [falling, partial curve, poor fit].

Take `Nc1nccc2c1ncn2[C@@H]1C=C(CO)[C@@H](O)[C@H]1O`: the AC50 is, setting by setting: under setting [1], 2.19 µM [falling, full curve]; (measured here: PEO4 viability) 0.616 µM [falling, partial curve].

As to `COc1cc(OC)cc(N2CCN(C(=O)Nc3nc4cc(F)ccc4nc3OC)CC2)c1`, the AC50 is 3.89 µM [falling, full curve] under setting [1] and 4.36 µM [falling, full curve] (measured here: PEO4 viability).

Consider `COc1ccc(-c2cc(C(O)C3CCCCN3)c3ccccc3n2)cc1` (stereo not given), for which the AC50 is 12.3 µM [falling, partial curve] under setting [1] and 24.5 µM [falling, single point] (measured here: PEO4 viability).

Consider `COc1cc(C(=O)NC(N)=Nc2ccc(C)c(NC(=O)c3ccc(-c4ccccc4)cc3)c2)cc(OC)c1OC`, for which the half-maximal activity concentration (AC50) reads like this: under setting [1], 17.4 µM [falling, partial curve]; (measured here: PEO4 viability) 11 µM [falling, partial curve].

Turning to `O=C(/C=C/c1cccnc1)NCCCCC1CCN(C(=O)c2ccccc2)CC1`, the AC50 is 0.011 µM [falling, full curve] under setting [1] and 0.0087 µM [falling, full curve] (measured here: PEO4 viability).

As for `C[C@H]1[C@H](O)O[C@@H]2O[C@@]3(C)CC[C@H]4[C@H](C)CC[C@@H]1[C@@]24OO3`, the AC50 by setting is: under setting [1], 8.71 µM [falling, partial curve]; (measured here: PEO4 viability) 24.5 µM [falling, single point].

Consider `COc1cc(-c2cn(C)c(=O)c3cnccc23)c(OC)cc1CN(C)C`, for which the AC50 reads like this: under setting [1], 11 µM [falling, partial curve]; (measured here: PEO4 viability) 12.3 µM [falling, partial curve].

Take `O=C(NO)c1cnc(NC2(c3ccccc3)CC2)nc1`: the AC50 is, setting by setting: under setting [1], 15.5 µM [falling, single point]; (measured here: PEO4 viability) 19.5 µM [falling, partial curve].

With `Cc1cc2cc(Oc3ccnc(Nc4cccc(CS(=O)(=O)NCCN(C)C)c4)n3)ccc2[nH]1`, the AC50 reads like this: under setting [1], 15.5 µM [falling, single point]; (measured here: PEO4 viability) 17.4 µM [falling, single point].

Take `O=C(NO)c1ccc(C2=Nc3ccccc3Oc3ccccc32)cc1`: the AC50 under setting [1] was 11 µM [falling, partial curve] and the AC50 (measured here: PEO4 viability) was 9.77 µM [falling, partial curve].

For `C=C1C(=O)O[C@H]2C[C@H](C)C(/C=C/C(C)=O)=CC[C@H]12`, the AC50 under setting [1] was 3.89 µM [falling, full curve] and the AC50 (measured here: PEO4 viability) was 4.36 µM [falling, full curve].

Consider `COc1cc(N2CCN(C)CC2)ccc1Nc1nccc(-c2cn(C)c3cnccc23)n1`, for which the AC50 was 6.16 µM [falling, partial curve] under setting [1] and 13.8 µM [falling, partial curve] (measured here: PEO4 viability).

Regarding `C/C(=C\c1csc(C)n1)[C@@H]1C[C@@H]2O[C@]2(C)CCC[C@H](C)[C@H](O)[C@@H](C)C(=O)C(C)(C)[C@@H](O)CC(=O)N1`, the AC50 reads like this: under setting [1], 0.174 µM [falling, full curve]; (measured here: PEO4 viability) 0.123 µM [falling, full curve].

For the compound `c1ccc(-c2ccc(CNc3nc(-c4ccccn4)nnc3-c3ccccc3)cc2)cc1`, the AC50 is 0.616 µM [falling, full curve] under setting [1] and 1.23 µM [falling, full curve] (measured here: PEO4 viability).

Consider `C/C=C1\NC(=O)[C@H]2CSSCC/C=C\[C@H](CC(=O)N[C@H](C(C)C)C(=O)N2)OC(=O)[C@H](C(C)C)NC1=O`, for which the AC50 is 0.0087 µM [falling, full curve] under setting [1] and 0.0138 µM [falling, full curve] (measured here: PEO4 viability).

On to `C[C@@H](Nc1ncnc2[nH]c(-c3ccc(O)cc3)cc12)c1ccccc1`, for which the AC50 is 19.5 µM [falling, single point] under setting [1] and 19.5 µM [falling, partial curve] (measured here: PEO4 viability).

With `CCS(=O)(=O)Nc1ccc(Oc2ccc(F)cc2F)c(-c2cn(C)c(=O)c3[nH]ccc23)c1`, the AC50 is, setting by setting: under setting [1], 0.155 µM [falling, full curve]; (measured here: PEO4 viability) 0.11 µM [falling, full curve].

Regarding `Cn1cc(C2=C(c3cn(C)c4cc([N+](=O)[O-])ccc34)C(=O)NC2=O)c2ccccc21`, the AC50 runs as follows: under setting [1], 7.76 µM [falling, partial curve]; (measured here: PEO4 viability) 15.5 µM [falling, partial curve].

As to `C/C(=N\NC(=S)N1CCC1)c1ccccn1`, the AC50 is 1.74 µM [falling, partial curve] under setting [1] and 0.0436 µM [falling, full curve] (measured here: PEO4 viability).

Consider `CC(C)(O)CNc1nc(Nc2ccnc(C(F)(F)F)c2)nc(-c2cccc(C(F)(F)F)n2)n1`, for which the half-maximal activity concentration (AC50) was 12.3 µM [falling, single point] under setting [1] and 17.4 µM [falling, partial curve] (measured here: PEO4 viability).

Turning to `CCC(=O)NC[C@H](Cc1ccc(OCCc2nc(-c3ccccc3)oc2C)cc1)N/C(C)=C\C(=O)c1ccc(C(F)(F)F)cc1`, the half-maximal activity concentration (AC50) runs as follows: under setting [1], 7.76 µM [falling, partial curve, poor fit]; (measured here: PEO4 viability) 19.5 µM [falling, single point].

For the compound `COc1cc(OC)c(/C=C/S(=O)(=O)Cc2ccc(OC)c(OP(=O)(O)O)c2)c(OC)c1`, the half-maximal activity concentration (AC50) reads like this: under setting [1], 0.049 µM [falling, full curve]; (measured here: PEO4 viability) 0.0436 µM [falling, full curve].

Take `C[C@@H]1COCCN1c1cc(C2(S(C)(=N)=O)CC2)nc(-c2ccnc3[nH]ccc23)n1` (stereo not given in full): the AC50 was 0.871 µM [falling, full curve] under setting [1] and 0.776 µM [falling, full curve] (measured here: PEO4 viability).

In the case of `CCc1ccc(N(CC(C)C)S(=O)(=O)c2ccc(OCC3CCOCC3)c(CO)c2)cc1`, the AC50 was 17.4 µM [falling, single point] under setting [1] and 24.5 µM [falling, single point] (measured here: PEO4 viability).

`CNC(=O)Cn1cc(-c2ccc3c(c2)C(F)CC32NC(=O)N(CC(=O)N(Cc3ccc(F)cc3)[C@@H](C)C(F)(F)F)C2=O)cn1` (stereo not given in full): the AC50 was 0.0776 µM [falling, full curve] under setting [1] and 0.0549 µM [falling, full curve] (measured here: PEO4 viability).

In the case of `Cn1ncc(Cl)c1-c1cc(C(=O)N[C@H](CN)Cc2cccc(F)c2)sc1Cl`, the AC50 runs as follows: under setting [1], 13.8 µM [falling, partial curve]; (measured here: PEO4 viability) 17.4 µM [falling, single point].

As to `N#Cc1c(N)nc(N)nc1N[C@H](c1nc2c(F)ccc(Cl)c2c(=O)n1-c1cccnc1)C1CC1`, the AC50 is 9.77 µM [falling, partial curve] under setting [1] and 8.71 µM [falling, partial curve] (measured here: PEO4 viability).

For the compound `CCC1=C[C@@H]2CN(C1)Cc1c([nH]c3ccccc13)[C@@](C(=O)OC)(c1cc3c(cc1OC)N(C)[C@H]1[C@@](O)(C(=O)OC)[C@H](OC(C)=O)[C@]4(CC)C=CCN5CC[C@]31[C@@H]54)C2`, the AC50 reads like this: under setting [1], 0.425 µM [falling, full curve]; (measured here: PEO4 viability) 0.535 µM [falling, full curve].
